We go through 55 compounds from PubChem BioAssay AID1508624 (National Center for Advancing Translational Sciences (NCATS), 2021).

Structures are written as SMILES. In all, about 48,000 compounds went through this assay and about 120 (0.25%) were called active. Roughly 4% stayed inconclusive and do not appear here. The call rests on the fitted dose curve; in most records, active means well fitted activation curve with a large enough effect; inconclusive means small, poorly fitted or top-dose-only effect, or another doubt; inactive means no such curve, though single readings can be large or run the other way. The list shows a part of the results.

A short description of this assay: Primary qHTS for Identification of Small Molecule Activators of Huntingtin-Antisense Promoter Activity. Further: nearly all actives have a fitted effect of over 55% in size. The settings on record: HEK293 HTT-AS promoter firefly luciferase reporter, 24 h; series mostly up to 57.5 µM; activity change, positive = activation: at the top concentration. Put shortly: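 Firefly luciferase readout (Dual-Glo, 10 min RT) after 24 h, 37 °C compound exposure (final up to 57.5 uM) of HEK293 reporter cells cultured 24 h beforehand; PTC124 at 50 uM final as control inhibitor; activity scaled vehicle 0%, zero RLU -100%.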
On to `O=C(COc1ccccc1)Nc1nnc2n1CCS2`, for which the “activity change, positive = activation” value was inactive: -2.79%.

In the case of `Cc1ccc(NC(=O)C(Cc2ccccc2)NS(=O)(=O)c2ccc3c(c2)oc(=O)n3C)cc1C` (stereo not given), the “activity change, positive = activation” value is inactive: 0%.

For the compound `CC(C)(C)C(=O)Cn1c(=O)n(CCCCCC(=O)NCc2ccccc2Cl)c(=O)c2sccc21`, the “activity change, positive = activation” value was inactive: -29.9%.

As for `COc1cc(OC)cc(-c2nc3nc(C)c(CCC(=O)Nc4ccccc4)c(C)n3n2)c1`, the “activity change, positive = activation” value is inactive: -8.53%.

As to `CC(=O)c1ccc(N2CCN(C(=O)Nc3cn(CC(C)C)c(=O)c4ccccc34)CC2)cc1`, the “activity change, positive = activation” value was inactive: -5.83%.

Regarding `CCC(=O)Nc1ccc(C)cc1-c1nc2ccccc2n(CC(=O)c2ccc(C)cc2)c1=O`, the “activity change, positive = activation” value is inactive: -7.86%.

On to `CC(C)(C)OC(=O)N1CCC(c2c(C(=O)NCc3ccco3)cnn2-c2ccc(F)cc2F)CC1`, for which the “activity change, positive = activation” value is inactive: -14.4%.

In the case of `Cc1noc2ncnc(N3CCCC(C(=O)Nc4cc(F)ccc4F)C3)c12` (stereo not given), the “activity change, positive = activation” value is inactive: -23.3%.

Turning to `CCOC(=O)c1c(C)c(C(=O)NCc2ccc(Cl)cc2)c(C)n1C`, the “activity change, positive = activation” value was inactive: -12%.

Consider `COc1ccccc1NC(=O)C1=C(C)Nc2nc(-c3ccco3)nn2C1c1cccc(C)c1` (stereo not given), for which the “activity change, positive = activation” value was inactive: -20.4%.

Turning to `CCc1ccc(-n2c(=O)c3c(C)c(C(=O)N(C)C)sc3n(CC(=O)Nc3cc(Cl)ccc3C)c2=O)cc1`, the “activity change, positive = activation” value is inactive: 15.3%.

For the compound `CCOC(=O)c1c(-c2ccc(Br)cc2)csc1NC(=O)c1ccc(C(C)(C)C)cc1`, the “activity change, positive = activation” value is inactive: -15.7%.

Regarding `Cc1ccc(CNC(=O)c2cc(=O)c3cc(C)c(C)cc3o2)cc1`, the activity change, positive = activation is inactive: 11.1% [at 11.5 µM, percent change from vehicle, -100% = no light].

Regarding `COc1ccc(CNC(=O)C2CCCN(C(=O)c3cnn(-c4ccc(F)cc4)c3-n3cccc3)C2)cc1` (stereo not given), the “activity change, positive = activation” value is inactive: -30.3%.

`CC1CCCCN1Cc1c(O)ccc2c(=O)c(-c3ccc(Cl)cc3)coc12` (stereo not given): the “activity change, positive = activation” value was inactive: 25.8%.

Consider `O=C(NCCS(=O)(=O)N1CCN(c2ccc(F)cc2)CC1)c1ccccc1Br`, for which the “activity change, positive = activation” value was inactive: -19.2%.

In the case of `COc1ccc(NC(=O)c2cc(=O)c3cc(C)cc(C)c3o2)cc1`, the activity change, positive = activation is inactive: 12.1% [at 11.5 µM, percent change from vehicle, -100% = no light].

Take `Cc1nc2c(-c3ccccc3)c(C)[nH]n2c(=O)c1Cc1ccc(Br)cc1`: the “activity change, positive = activation” value is inactive: -65.5%.

Turning to `CCOc1cccc2sc(NC(=O)c3ccc(S(=O)(=O)N4CCCCC4)cc3)nc12`, the “activity change, positive = activation” value was inactive: -31.1%.

Consider `CC(CNc1nc2ccccc2c2nc(-c3ccccc3)nn12)c1ccccc1` (stereo not given), for which the “activity change, positive = activation” value was inactive: -7.36%.

In the case of `COc1ccc(NC(=O)c2cc3c(=O)n(C)c4cc(Cl)ccc4c3s2)cc1Cl`, the “activity change, positive = activation” value was inactive: -10.6%.

On to `CC(=O)Nc1cccc(NC(=O)CSc2cn(CC(=O)N3CCCC3)c3ccccc23)c1`, for which the “activity change, positive = activation” value is inactive: -5.16%.

In the case of `CC1CCN(S(=O)(=O)c2ccc3c(ccc(=O)n3CC(=O)NCc3ccccc3)c2)CC1`, the “activity change, positive = activation” value was inactive: -20.3%.

Take `CCCS(=O)(=O)c1nc(S(=O)(=O)c2ccc(C)cc2)c(NCC(C)C)s1`: the “activity change, positive = activation” value is inactive: -19.6%.

`Cc1ccc(CCNC(=O)c2oc(=O)c3ccccc3c2-c2ccc(C)cc2)cc1`: the “activity change, positive = activation” value was inactive: -19.9%.

As for `CCc1ccc(NC(=O)Cn2cnc3nc4c(cc3c2=O)CCCC4)cc1`, the “activity change, positive = activation” value was inactive: 27.9%.

For `CCOC(=O)c1cc2c(=O)n3ccccc3nc2n(CC(C)C)c1=NC(=O)C(C)(C)Oc1ccc(Cl)cc1`, the “activity change, positive = activation” value was inactive: -1.76%.

For the compound `Cc1ccc(C(=O)N2CC(=O)Nc3ccc(Br)cc3C2c2ccc(F)cc2)cc1C` (stereo not given), the “activity change, positive = activation” value was inactive: -27.1%.

On to `Cc1ccc(C)c(N2CCN(C(=O)CCc3c(C)nc4c(c3C)c(=O)n(C)c(=O)n4C)CC2)c1`, for which the “activity change, positive = activation” value is inactive: -8.63%.

As for `CCN1CCN(C(=O)Cn2c(-c3cccs3)cc3cc(Cl)ccc32)CC1`, the “activity change, positive = activation” value is inactive: -28.1%.

For the compound `COc1ccccc1CNC(=O)C1CCN(c2ncnc3c2nc2n3CCCCC2)CC1`, the activity change, positive = activation was inactive: 3.81% [at 11.5 µM, percent change from vehicle, -100% = no light].

On to `CC(C)CCNC(=O)c1c[nH]c2ccc(S(=O)(=O)Nc3cccc(C(F)(F)F)c3)cc2c1=O`, for which the “activity change, positive = activation” value is inactive: -40.1%.

Consider `COc1ccc(C(CNC(=O)c2oc3ccccc3c2C)N2CCCCC2)cc1` (stereo not given), for which the “activity change, positive = activation” value is inactive: 1.72%.

Regarding `CCc1ccc(-n2c3nc(=O)[nH]c(=O)c-3cc3c(C)nn(-c4ccccc4)c32)cc1`, the “activity change, positive = activation” value is inactive: -8.41%.

Regarding `CCc1c(C)sc2c1CCN(C(=O)Nc1ccccc1Cl)C2c1ccc(OC)cc1` (stereo not given), the “activity change, positive = activation” value was inactive: -6.74%.

On to `Cc1cc(-n2c(SCc3ccccc3F)nc3[nH]ncc3c2=O)ccc1Cl`, for which the “activity change, positive = activation” value was inactive: -26%.

As for `CCCCCCCCCCCCCCCC[N+](C)(C)CC`, the “activity change, positive = activation” value was inactive: -40.8%.

Consider `Cc1ccc(-c2noc(-c3ccc(NC4CCCC4)c([N+](=O)[O-])c3)n2)cc1`, for which the “activity change, positive = activation” value was inactive: -4.4%.

Turning to `Cc1cc(Cl)ccc1NC(=O)C1CCCN1S(=O)(=O)c1ccc2c(c1)CCCC(=O)N2` (stereo not given), the “activity change, positive = activation” value was inactive: -34%.

Regarding `CC(C)(C)OC(=O)N1CCC(c2nnc(SCc3ccccc3Cl)o2)CC1`, the “activity change, positive = activation” value is inactive: -30.7%.

With `CS(=O)(=O)c1ncc(N(Cc2ccco2)Cc2cccs2)c(C(=O)Nc2ccccc2F)n1`, the “activity change, positive = activation” value is inactive: -20%.

On to `COc1ccc(Cl)cc1NC(=O)C(C)n1c(=O)cc(C(F)(F)F)c2c(C)nn(C)c21` (stereo not given), for which the “activity change, positive = activation” value was inactive: -16.1%.

On to `Cc1ccc(Cn2ccn(Cc3ccc(C)cc3)c(=O)c2=O)cc1`, for which the “activity change, positive = activation” value was inactive: -4.19%.

As to `CC1CCc2onc(C(=O)N3CCN(c4ccc(Cl)cc4)CC3)c2C1` (stereo not given), the “activity change, positive = activation” value was inactive: -15%.

For `COc1ccc(N2C(=O)NC(NS(=O)(=O)c3ccc(NC(C)=O)cc3)(C(F)(F)F)C2=O)cc1` (stereo not given), the activity change, positive = activation was inactive: -8.72% [at 11.5 µM, percent change from vehicle, -100% = no light].

With `CCOc1ccc(CNC(=O)CCCn2nc(C)c3c(C)n(-c4ccc(C)cc4)nc3c2=O)cc1`, the “activity change, positive = activation” value was inactive: -10.6%.

For the compound `CCOC(=O)OC(C)OC(=O)[C@@H]1N2C(=O)[C@@H](NC(=O)[C@H](N)c3ccccc3)[C@H]2SC1(C)C` (stereo not given in full), the “activity change, positive = activation” value is inactive: 0.213%.

In the case of `Cc1ccc(-n2c(=O)c3oc4ccccc4c3n(Cc3ccccc3)c2=O)cc1C`, the “activity change, positive = activation” value is inactive: -15.4%.

As to `Cc1ccc(-c2noc(-c3nnn(CC(=O)Nc4ccc(C)cc4Cl)c3N)n2)cc1`, the “activity change, positive = activation” value is inactive: -10.1%.

On to `Cc1cc(C)cc(NS(=O)(=O)c2ccc3[nH]cc(C(=O)N4CCCCC4)c(=O)c3c2)c1`, for which the “activity change, positive = activation” value was inactive: -4.48%.

For the compound `CCOc1ccccc1CNC(=O)c1ccc2c(c1)N(CC)CCS2`, the “activity change, positive = activation” value is inactive: -14.6%.

`COc1cccc(CNC(=O)C(Cc2ccccc2)NS(=O)(=O)c2ccc3c(c2)CCN3C(C)=O)c1` (stereo not given): the “activity change, positive = activation” value was inactive: 10.1%.

As for `CCOc1cc2c(cc1OCC)C(CC(=O)OC)N(C(=O)Nc1cc(C)cc(C)c1)CC2` (stereo not given), the “activity change, positive = activation” value is inactive: 6.89%.

As for `Cc1ccc(NC(=O)CCc2nc(-c3ccccc3F)no2)c(C)c1`, the “activity change, positive = activation” value was inactive: -16.8%.

As to `COc1cc(C(=O)Nc2sc3c(c2C#N)CCCC3)c(Br)c(OC)c1OC`, the “activity change, positive = activation” value is inactive: -33.2%.
